Test results as given in PubChem BioAssay AID1814 (Broad Institute, 2009).
Screen size: about 300,000 compounds; about 22,000 (7.3%) were called active. The shares of active, inactive and inconclusive entries below differ from those in the screen. Cut-off read from the data, not from the text of the source: active = activity score below about -60%; inconclusive = mostly about -28% to -61%; inactive = positive scores.

Experiment: Activators via SNCA 5'UTR binding, MLPCN (AID 1814)
Conditions: alpha-synuclein 5'UTR reporter, activators screen; hits give low values; tested at 7.5 µM

| Structure (SMILES) | activity score |
| --- | --- |
| COc1ccc(NC(=O)COC(=O)c2ccc(F)cc2F)cc1 | inconclusive: -27.2% |
| CC(C)=CC(=O)Nc1nnc(-c2ccc(F)cc2)s1 | inconclusive: -53.6% |
| C/C(=C\C(=O)c1ccc(Cl)cc1)Nc1ccc(N2CCOCC2)cc1 | inconclusive: -45.1% |
| CC(=O)Nc1ccc(S(=O)(=O)N(Cc2cccnc2)Cc2cc3ccc(C)cc3[nH]c2=O)cc1 | inactive: 59.9% |
| O=c1c2ccccc2sc2ccc(C#CC3(O)CCCCC3)cc12 | inactive: 104% |
| C/C(CC(=O)Nc1ccccn1)=N\NC(=O)c1ccccc1 | inconclusive: -58.1% |
| Nc1ccc(Oc2cccc(Oc3ccc(N)cc3)c2)cc1 | inactive: 87.2% |
| CN(C)c1ccc(Nc2nc(N)c3ccccc3n2)cc1 | inactive: 109% |
| Cc1cc2cc(CNC(=O)c3cccs3)ccc2[nH]1 | inconclusive: -55.9% |
| CC(C)COc1ccc(C(=O)Nc2sc3c(c2C(=O)O)CC(C)(C)OC3)cc1 | inactive: 62.6% |
| CCOC(=O)N1CCN(C(=O)c2ccc3c(c2)sc2nc(-c4ccc(OC)cc4)cn23)CC1 | inconclusive: -59.7% |
| CCCOc1ccc(C(=O)NCC(c2ccco2)N(C)C)cc1 (stereo unspecified) | inconclusive: -45.5% |
| C=C1C(=O)C=C2CN(C(=O)c3ccccc3)[C@@](Cc3ccc(F)cc3)(C(=O)OC)[C@@H]12 | inactive: 56.3% |
| Cc1ccc(C(=O)c2cccc(N)c2)cc1C | inactive: 82% |
| Cc1cc(C)c2c(CCl)cc(=O)oc2c1 | inactive: 91.1% |
| CCOC(=O)C1CCN(c2ncnc3c2cnn3-c2ccc(Cl)cc2)CC1 | inactive: 64.7% |
| COc1ccc2cc(/C=N/NC(=O)c3ccc(CN(c4cccc(Cl)c4Cl)S(C)(=O)=O)cc3)c(Cl)nc2c1 | inactive: 66.9% |
| CCOc1cc(/C=N/NC(=O)c2ccccn2)ccc1OC(=O)c1cccs1 | inconclusive: -46.6% |
| COc1ccc(NC(C)c2ccccc2)cc1 (stereo unspecified) | active: -90.7% |
| O=C(/C=C/c1ccc(Cl)cc1Cl)c1cccnc1 | inconclusive: -57.1% |
| CCN(CC(=O)NCC(=O)Nc1ccc(Br)cc1C)Cc1ccccc1 | inconclusive: -48.8% |

| Structure (SMILES) | activity score |
| --- | --- |
| O=C(COC(=O)c1cc[n+]([O-])cc1)Nc1ccc(F)c([N+](=O)[O-])c1 | inconclusive: -56.2% |
| COC(=O)c1ccc(NC(=O)Nc2ccc(C)cc2)cc1 | active: -81.9% |
| Cc1ccnc2nc(C(=O)NCc3ccccc3)nn12 | inconclusive: -45.7% |
| Nc1nc2ccc(-c3nc4ccccc4o3)cc2s1 | inconclusive: -55.1% |
| CCN(CC(=O)NC(C)(C)C)C(=O)CCl | inconclusive: -57.5% |
| O=C1OC(c2ccccc2)/C(=C(/O)c2ccccc2)C1=O (stereo unspecified) | active: -63.7% |
| Cc1ccc(-c2nnc(N(C)C(=O)C3CCCO3)s2)cn1 (stereo unspecified) | inconclusive: -59.3% |
| C/C(=N/NC(=O)c1cc(C)[nH]n1)c1ccco1 | inconclusive: -60.2% |
| CCc1nn2cc(-c3ccccc3)nc2s1 | inactive: 80.2% |
| Cc1cc(N=Nc2ccc3ccccc3c2)ccc1O | inconclusive: -55% |
| COc1cccc(NC(=O)CSc2c3c(nc4ccccc24)CCCC3)c1 | inconclusive: -47.4% |
| CC1(C)OC2OC(COC(=O)c3ccccc3)C3OC(C)(C)OC3C2O1 (stereo unspecified) | active: -88.7% |
| Cc1csc(SCC(=O)Nc2sccc2C(N)=O)n1 | active: -110% |
| Cc1ccc(-c2cc3c(N=O)c4ccccc4c-3n[nH]2)cc1 | inactive: 91.7% |
| O=C(CN(c1ccc(Cl)cc1)S(=O)(=O)c1ccc(Cl)c([N+](=O)[O-])c1)NCCc1ccccc1 | inactive: 106% |
| COC(=O)c1cc(-c2ccc(Cl)cc2Cl)n[nH]1 | inconclusive: -42.2% |
| CCOC(=O)C1=C(CN2CCc3ccccc32)NC(=O)NC1c1ccc(Cl)cc1 (stereo unspecified) | inactive: 44.8% |
| CN1CCN(c2ccc(NC(=O)COc3ccc4ccccc4c3)cc2)CC1 | inconclusive: -52% |
| O=C(Nc1cccs1)Nc1ccccc1Br | active: -89.4% |
| COc1cc(/C=C(\C#N)c2nc3ccccc3[nH]2)cc(Br)c1OCc1ccccc1 | inconclusive: -53.3% |
| S=c1[nH]c2ccc3ccccc3c2[nH]1 | inconclusive: -54.7% |

| Structure (SMILES) | activity score |
| --- | --- |
| COc1ccc(C=O)cc1OS(=O)(=O)c1ccccc1[N+](=O)[O-] | inconclusive: -41.5% |
| Cn1ccc(C(=O)N/N=C/c2c[nH]c3ccccc23)n1 | inconclusive: -49.4% |
| Cn1cc(/C=N\NC(=O)c2cccs2)c2ccccc21 | active: -280% |
| COc1cccc(/C=N/Nc2ccc([N+](=O)[O-])cn2)c1O | inactive: 102% |
| Cc1c(N2C(=O)/C(=C\C3CC=CCC3)SC2=S)c(=O)n(-c2ccccc2)n1C (stereo unspecified) | inconclusive: -19.6% |
| Cc1nc(-c2ccc(C(=O)Nc3ccccc3F)cc2)cs1 | inactive: 92.4% |
| CCOC(=O)c1c(C)oc2c1c1c(c3ccccc32)OCN(Cc2ccccn2)C1 | active: -102% |
| Cc1cc(N/N=C2\CC(C)CC(C)(C)C2)nc2ccccc12 (stereo unspecified) | inconclusive: -53.2% |
| C=CCNc1nc(-c2ccc(Cl)cc2)cs1 | active: -238% |
| O=C(Nc1ccc(Br)cc1)Nc1ccccc1Cl | active: -129% |
| O=C(O)CCCCCn1c(O)c(C=C2N=c3ccccc3=N2)sc1=S | inconclusive: -58.3% |
| COc1ccc(C2CN=NC23CCCc2ccccc2C3=O)cc1 (stereo unspecified) | inconclusive: -50.5% |
| COc1ccc(C(C(=O)NC(C)(C)C)N(C(=O)CNC(=O)c2cccs2)c2ccc(C(C)C)cc2)cc1OC (stereo unspecified) | inconclusive: -34.3% |
| CCCC1(C(=O)OC)NC(c2ccco2)C2C(=O)N(C)C(=O)C21 (stereo unspecified) | inactive: 27.8% |
| O=C(COc1ccc2ccccc2c1Br)N1CCCCC1 | inconclusive: -61.4% |
| N/C(=N\OC(=O)Cc1cccs1)c1ccc(Cl)cc1 | inconclusive: -38.6% |
| O=C(COc1ccccc1-c1ccccc1)N/N=C/c1ccc2ccccc2c1 | inconclusive: -59.2% |
| O=c1c2ccccc2nc(N/N=C/c2ccccc2)n1O | inconclusive: -57.3% |
| Cc1ccccc1OCC(=O)N=Nc1c(O)n(C)c2ccccc12 | inconclusive: -59.4% |
